Data as given in the supplement of paper PMC3334620.
In all, about 33,000 sequences were measured (“E-score (-0.5 to 0.5)”: median about -0.041, highest 2% from about 0.37 on). Some of the results follow.

Target: T1, Ecm22 (UniProt Q05958)
T1 sequence: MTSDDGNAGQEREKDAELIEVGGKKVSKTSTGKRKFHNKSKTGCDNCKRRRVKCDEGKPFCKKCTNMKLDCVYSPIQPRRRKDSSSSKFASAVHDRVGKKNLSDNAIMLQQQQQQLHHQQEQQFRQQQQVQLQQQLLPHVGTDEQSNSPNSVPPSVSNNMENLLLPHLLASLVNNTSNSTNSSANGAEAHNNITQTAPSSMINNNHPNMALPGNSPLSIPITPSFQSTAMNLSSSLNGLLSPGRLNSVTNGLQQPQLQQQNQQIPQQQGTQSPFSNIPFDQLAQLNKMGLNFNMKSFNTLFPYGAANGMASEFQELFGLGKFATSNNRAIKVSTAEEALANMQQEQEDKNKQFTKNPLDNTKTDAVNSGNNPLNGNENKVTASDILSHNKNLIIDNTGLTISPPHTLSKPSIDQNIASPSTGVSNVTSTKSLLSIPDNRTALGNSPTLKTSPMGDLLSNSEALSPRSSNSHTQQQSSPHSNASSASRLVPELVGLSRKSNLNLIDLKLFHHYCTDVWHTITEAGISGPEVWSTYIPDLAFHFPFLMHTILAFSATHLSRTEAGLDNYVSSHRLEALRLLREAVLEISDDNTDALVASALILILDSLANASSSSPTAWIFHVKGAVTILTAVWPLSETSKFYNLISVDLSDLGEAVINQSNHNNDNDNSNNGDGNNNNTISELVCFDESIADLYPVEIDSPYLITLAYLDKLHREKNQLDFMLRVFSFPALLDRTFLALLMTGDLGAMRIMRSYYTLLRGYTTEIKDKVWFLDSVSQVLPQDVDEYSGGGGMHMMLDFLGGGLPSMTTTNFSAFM
Assay: PBM E-score (8-mer binding enrichment) (E-score (-0.5 to 0.5)); higher = stronger / more preferred TF binding; most listed sequences are background and not binding sites
Conditions: protein concentration: 200 nM; construct: GST-full length
Summary of the method: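 Using PURExpress in vitro transcription/translation, GST-tagged yeast transcription factors were made in full-length or DNA-binding-domain form. These were applied at about 100-200 nM to double-stranded universal all-10-mer Agilent arrays, and bound protein was detected with fluorescent anti-GST. Scans were normalised with masliner before the Universal PBM Analysis Suite assigned E-scores to ungapped eight-base words pooled with their reverse complements.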

Sequence	PBM E-score
ACGGCATG	-0.00198
CACCACGA	0.0869
AGACACAG	-0.336
AAAATAAT	0.00354
CACTCGAA	0.0641
AGTAGTGA	-0.155
AGAGGGAT	-0.0615
CTCTACCA	0.00853
GGCTATCA	-0.115
AGGGAGGG	-0.307
GCGGACAA	0.0928
AGTATGCA	-0.271
AAGAGTTG	0.0167
CAGAGGCG	-0.158
CAGTCTTC	-0.246
AAGTGAAT	-0.0871
TAGTTACA	-0.0578
CTCGCCAG	0.0513
GTCCGGAC	-0.0153
CACCCGGC	-0.296
ACCAATCG	0.0931
ACCTCAGG	-0.335

Sequence	PBM E-score
GTTCCAAC	0.135
ACTCGCTG	0.0365
AGAATGAC	-0.266
AATCAGAT	-0.143
AAGTCGGA	0.141
GAAGGAAC	0.0856
TGCCGCCA	-0.0293
AGCTCGAG	-0.00883
AACTAGAC	0.00302
CGTATACG	0.489
ATCAGGCC	-0.128
GAATTTCC	0.0531
GTCATATA	0.0221
GAGCGCAC	0.00729
CGGAAGAG	-0.0717
GGATATGA	0.103
ACAAACTC	0.0302
AAAAATAC	0.0641
ACCTACGG	-0.24
CTCTCGAA	-0.0852
GTGAACTA	0.0738
CATAGTCG	0.0472

Sequence	PBM E-score
CTGGTAGC	-0.248
ACCCTCCG	-0.0451
AAGAATGC	-0.151
CGTATTGA	0.241
ACCGGACG	0.0312
AGCGCTTG	-0.203
GTGGTAAC	0.0265
CGTCAAAA	0.0203
ATATGGAA	-0.00599
TAAAAATA	0.00387
AATCTCGT	0.386
CCTCACAA	-0.155
AGTTCAGC	-0.102
ATGAAGTA	-0.0234
GTCGTCAA	-0.0282
CGATTGGA	-0.0135
GAATATAC	0.232
GGGCACTA	-0.134
ACTATAAA	-0.184
ATATCTTG	-0.103
AATCGACG	0.126
CAAGGACA	-0.247

Sequence	PBM E-score
AACAACAG	-0.12
ACAGAAAG	-0.0506
AGAGTGTC	0.0415
GTATAGTA	0.345
CAGGTCCC	-0.238
AGCACATG	-0.00329
ATATGCAT	-0.00148
CTCAAAGA	-0.194
ACCTTTAC	0.0667
GGCGGTGA	-0.0904
TATCAACA	-0.00615
CGCGCCCA	-0.00819
TAACTTAA	-0.141
GCAGTCGA	-0.106
ACGGCTAA	0.178
CTTAATAA	0.0233
GAGACAAA	-0.0853
AACAGTGC	-0.0382
CACGAGTG	0.106
GAAATAAC	-0.0134
